Measurements as given in article PMC9911399, “Two distinct binding modes provide the RNA-binding protein RbFox with extraordinary sequence specificity”.
Residue numbers refer to the chain shown, from its start. The list shows a part of the results.

T1: RBFOX1 RRM RbFoxmut (Fox-RRM*) (Homo sapiens, UniProt Q9NWB1 109-208, R118D;E147R;N151S;E152T)
T1 sequence: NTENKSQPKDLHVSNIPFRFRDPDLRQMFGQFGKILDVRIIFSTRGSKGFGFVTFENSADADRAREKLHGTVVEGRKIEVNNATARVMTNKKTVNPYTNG

B1: GAUCUGG (DNA:RNA)
RNA: GGGAGACCGGAAUUCAGAUUGUCCGAUCUGGUUAAAUCCCGUCGUAGCCACCA
DNA 1: CAATCTGAATTCCGGTCTCCC
DNA 2: TGGTGGCTACGACGGGATT
B2: AGUGGCA (DNA:RNA)
RNA: B1 RNA with G25A, A26G, C28G, U29G, G30C, G31A
DNA 1: CAATCTGAATTCCGGTCTCCC
DNA 2: TGGTGGCTACGACGGGATT
B3: GUGAGGA (DNA:RNA)
RNA: B1 RNA with A26U, U27G, C28A, U29G, G31A
DNA 1: CAATCTGAATTCCGGTCTCCC
DNA 2: TGGTGGCTACGACGGGATT
B4: UGGUGAG (DNA:RNA)
RNA: B1 RNA with G25U, A26G, U27G, C28U, U29G, G30A
DNA 1: CAATCTGAATTCCGGTCTCCC
DNA 2: TGGTGGCTACGACGGGATT
B5: UCGCGGC (DNA:RNA)
RNA: B1 RNA with G25U, A26C, U27G, U29G, G31C
DNA 1: CAATCTGAATTCCGGTCTCCC
DNA 2: TGGTGGCTACGACGGGATT
B6: GUUAAAG (DNA:RNA)
RNA: B1 RNA with A26U, C28A, U29A, G30A
DNA 1: CAATCTGAATTCCGGTCTCCC
DNA 2: TGGTGGCTACGACGGGATT
B7: UAGACGU (DNA:RNA)
RNA: B1 RNA with G25U, U27G, C28A, U29C, G31U
DNA 1: CAATCTGAATTCCGGTCTCCC
DNA 2: TGGTGGCTACGACGGGATT
B8: GAUGAUU (DNA:RNA)
RNA: B1 RNA with C28G, U29A, G30U, G31U
DNA 1: CAATCTGAATTCCGGTCTCCC
DNA 2: TGGTGGCTACGACGGGATT
B9: AGGAGGG (DNA:RNA)
RNA: B1 RNA with G25A, A26G, U27G, C28A, U29G
DNA 1: CAATCTGAATTCCGGTCTCCC
DNA 2: TGGTGGCTACGACGGGATT
B10: GCCCAAA (DNA:RNA)
RNA: B1 RNA with A26C, U27C, U29A, G30A, G31A
DNA 1: CAATCTGAATTCCGGTCTCCC
DNA 2: TGGTGGCTACGACGGGATT
B11: AAGAUGC (DNA:RNA)
RNA: B1 RNA with G25A, U27G, C28A, G31C
DNA 1: CAATCTGAATTCCGGTCTCCC
DNA 2: TGGTGGCTACGACGGGATT
B12: UCCUACU (DNA:RNA)
RNA: GGGAGACCGGAAUUCAGAUUGUCCUCCUACUUUAAAUCCCGUCGUAGCCACCA
DNA 1: CAATCTGAATTCCGGTCTCCC
DNA 2: TGGTGGCTACGACGGGATT
B13: UCGAUCA (DNA:RNA)
RNA: B12 RNA with C27G, U28A, A29U, U31A
DNA 1: CAATCTGAATTCCGGTCTCCC
DNA 2: TGGTGGCTACGACGGGATT
B14: ACAGCAA (DNA:RNA)
RNA: B12 RNA with U25A, C27A, U28G, A29C, C30A, U31A
DNA 1: CAATCTGAATTCCGGTCTCCC
DNA 2: TGGTGGCTACGACGGGATT
B15: AUCGAGA (DNA:RNA)
RNA: B12 RNA with U25A, C26U, U28G, C30G, U31A
DNA 1: CAATCTGAATTCCGGTCTCCC
DNA 2: TGGTGGCTACGACGGGATT
B16: UCGCUCA (DNA:RNA)
RNA: B12 RNA with C27G, U28C, A29U, U31A
DNA 1: CAATCTGAATTCCGGTCTCCC
DNA 2: TGGTGGCTACGACGGGATT
B17: UAUAUCU (DNA:RNA)
RNA: B1 RNA with G25U, C28A, G30C, G31U
DNA 1: CAATCTGAATTCCGGTCTCCC
DNA 2: TGGTGGCTACGACGGGATT
B18: ACAUAAG (DNA:RNA)
RNA: B12 RNA with U25A, C27A, C30A, U31G
DNA 1: CAATCTGAATTCCGGTCTCCC
DNA 2: TGGTGGCTACGACGGGATT
B19: CGGAUAA (DNA:RNA)
RNA: B1 RNA with G25C, A26G, U27G, C28A, G30A, G31A
DNA 1: CAATCTGAATTCCGGTCTCCC
DNA 2: TGGTGGCTACGACGGGATT
B20: CUGGAUC (DNA:RNA)
RNA: B12 RNA with U25C, C26U, C27G, U28G, C30U, U31C
DNA 1: CAATCTGAATTCCGGTCTCCC
DNA 2: TGGTGGCTACGACGGGATT
B21: ACUCACU (DNA:RNA)
RNA: B12 RNA with U25A, C27U, U28C
DNA 1: CAATCTGAATTCCGGTCTCCC
DNA 2: TGGTGGCTACGACGGGATT
B22: AUUCCGA (DNA:RNA)
RNA: B1 RNA with G25A, A26U, U29C, G31A
DNA 1: CAATCTGAATTCCGGTCTCCC
DNA 2: TGGTGGCTACGACGGGATT
B23: UUAUCGA (DNA:RNA)
RNA: B12 RNA with C26U, C27A, A29C, C30G, U31A
DNA 1: CAATCTGAATTCCGGTCTCCC
DNA 2: TGGTGGCTACGACGGGATT
B24: ACUCUGU (DNA:RNA)
RNA: B1 RNA with G25A, A26C, G31U
DNA 1: CAATCTGAATTCCGGTCTCCC
DNA 2: TGGTGGCTACGACGGGATT
B25: UAUUAGA (DNA:RNA)
RNA: B1 RNA with G25U, C28U, U29A, G31A
DNA 1: CAATCTGAATTCCGGTCTCCC
DNA 2: TGGTGGCTACGACGGGATT
B26: GACUAAG (DNA:RNA)
RNA: B1 RNA with U27C, C28U, U29A, G30A
DNA 1: CAATCTGAATTCCGGTCTCCC
DNA 2: TGGTGGCTACGACGGGATT
B27: UGACGCC (DNA:RNA)
RNA: B12 RNA with C26G, C27A, U28C, A29G, U31C
DNA 1: CAATCTGAATTCCGGTCTCCC
DNA 2: TGGTGGCTACGACGGGATT
B28: UACAUUC (DNA:RNA)
RNA: B1 RNA with G25U, U27C, C28A, G30U, G31C
DNA 1: CAATCTGAATTCCGGTCTCCC
DNA 2: TGGTGGCTACGACGGGATT
B29: UCCGUCG (DNA:RNA)
RNA: B12 RNA with U28G, A29U, U31G
DNA 1: CAATCTGAATTCCGGTCTCCC
DNA 2: TGGTGGCTACGACGGGATT
B30: ACUCUAA (DNA:RNA)
RNA: B1 RNA with G25A, A26C, G30A, G31A
DNA 1: CAATCTGAATTCCGGTCTCCC
DNA 2: TGGTGGCTACGACGGGATT
B31: AGAUAGA (DNA:RNA)
RNA: B12 RNA with U25A, C26G, C27A, C30G, U31A
DNA 1: CAATCTGAATTCCGGTCTCCC
DNA 2: TGGTGGCTACGACGGGATT

Target: T1, RBFOX1 RRM RbFoxmut (Fox-RRM*)
Experiment: EMSA; HiTS-Eq, 1 nM pool, 10 min; buffer printed only for the single-RNA assays: 10 mM Tris pH 7.5, 150 mM NaCl, 3.4 mM EDTA, 0.001% NP-40, 30 C
Conditions: tags: His6 N-terminal (pET28a); label: 5' 32P
Summary of the method: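 Relative association constants, normalised to the cognate motif, were derived by comparing read counts of each RNA species with those of the control reaction. The RNA sequenced was the free fraction, separated by 8% native PAGE after a 10 min equilibration in 50 µL of 1 nM 5′-radiolabelled RNA (7 randomized nucleotides) with increasing concentrations of purified wild-type or mutant RbFox RRM.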

Question: With B1 as the binder, how does the binding signal read?
Answer: 0.0866 KA relative to UGCAUGU

Question: With B2 as the binder, how does the binding signal read?
Answer: 0.144 KA relative to UGCAUGU

Question: For B3, which binding signal is on record?
Answer: 0.0646 KA relative to UGCAUGU

Question: With B4 as the binder, how does the binding signal read?
Answer: 0.128 KA relative to UGCAUGU

Question: How did the binding signal turn out when B5 was run?
Answer: 0.0965 KA relative to UGCAUGU

Question: Which binding signal does the source give for B6 here?
Answer: 0.0986 KA relative to UGCAUGU

Question: For B7, which binding signal is on record?
Answer: 0.064 KA relative to UGCAUGU

Question: For B8, which binding signal is on record?
Answer: 0.084 KA relative to UGCAUGU

Question: Which binding signal does the source give for B9 here?
Answer: 0.0885 KA relative to UGCAUGU

Question: With B10 as the binder, how does the binding signal read?
Answer: 0.0845 KA relative to UGCAUGU

Question: How did the binding signal turn out when B11 was run?
Answer: 0.0736 KA relative to UGCAUGU

Question: B12 was tested. Which binding signal did it give?
Answer: 0.0965 KA relative to UGCAUGU

Question: How did the binding signal turn out when B13 was run?
Answer: 0.079 KA relative to UGCAUGU

Question: How did the binding signal turn out when B14 was run?
Answer: 0.0934 KA relative to UGCAUGU

Question: For B15, which binding signal is on record?
Answer: 0.113 KA relative to UGCAUGU

Question: With B16 as the binder, how does the binding signal read?
Answer: 0.0755 KA relative to UGCAUGU

Question: With B17 as the binder, how does the binding signal read?
Answer: 0.0667 KA relative to UGCAUGU

Question: Which binding signal does the source give for B18 here?
Answer: 0.143 KA relative to UGCAUGU

Question: With B19 as the binder, how does the binding signal read?
Answer: 0.0883 KA relative to UGCAUGU

Question: For B20, which binding signal is on record?
Answer: 0.274 KA relative to UGCAUGU

Question: B21 was tested. Which binding signal did it give?
Answer: 0.0861 KA relative to UGCAUGU

Question: How did the binding signal turn out when B22 was run?
Answer: 0.0701 KA relative to UGCAUGU

Question: How did the binding signal turn out when B23 was run?
Answer: 0.0615 KA relative to UGCAUGU

Question: With B24 as the binder, how does the binding signal read?
Answer: 0.0734 KA relative to UGCAUGU

Question: How did the binding signal turn out when B25 was run?
Answer: 0.0589 KA relative to UGCAUGU

Question: Which binding signal does the source give for B26 here?
Answer: 0.101 KA relative to UGCAUGU

Question: Which binding signal does the source give for B27 here?
Answer: 0.114 KA relative to UGCAUGU

Question: B28 was tested. Which binding signal did it give?
Answer: 0.0735 KA relative to UGCAUGU

Question: B29 was tested. Which binding signal did it give?
Answer: 0.099 KA relative to UGCAUGU

Question: For B30, which binding signal is on record?
Answer: 0.101 KA relative to UGCAUGU

Question: Which binding signal does the source give for B31 here?
Answer: 0.0924 KA relative to UGCAUGU
